Results from PubChem BioAssay AID624417 (National Center for Advancing Translational Sciences (NCATS), 2012).
Values joined by “and” are separate entries in the source; they are usually repeats but may differ in a detail not shown here. Identical values can stand only once. The whole screen tested about 410,000 compounds, of which about 6,400 (1.6%) were called active. The inconclusive results got no clear call from the source; some entries with a clear call stand among them for comparison. Calls follow the shape of the dose curve; as a rule, active = well fitted inhibition curve with a large enough effect; inconclusive = small, poorly fitted or top-dose-only effect; inactive = no such curve, though single readings can be large or run the other way. Potencies beside an inconclusive call are fits to weak or partial responses and may not hold up.

Target: Glucagon-like peptide 1 receptor (Homo sapiens) (UniProt P43220)
Assay: qHTS of GLP-1 Receptor Inverse Agonists (Inhibition Mode); also: nearly all actives have a fitted effect of over 55% in size
Conditions: HEK293 GLP-1R CRE-luciferase, luminescence, 24 h, GLP-1R form is constitutively active; activity change, negative = inhibition: at 38.3 µM (top of the series) unless noted
Method in brief: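 Cells are plated, allowed 12 hours at 37 deg C, then treated with compounds for 24 hr before luciferase detection reagent is added and luminescence is read after 12 min at room temperature. The HEK293 line carries constitutively active GLP-1R with a cAMP-responsive reporter.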
% is scaled to controls: 0 for no effect and ±100 for the full control effect; potency is read from the fitted curve at half-maximal effect; tags tell the direction and shape of the fitted curve.

UniProt P43220, sequence (P43220 whole entry, looked up): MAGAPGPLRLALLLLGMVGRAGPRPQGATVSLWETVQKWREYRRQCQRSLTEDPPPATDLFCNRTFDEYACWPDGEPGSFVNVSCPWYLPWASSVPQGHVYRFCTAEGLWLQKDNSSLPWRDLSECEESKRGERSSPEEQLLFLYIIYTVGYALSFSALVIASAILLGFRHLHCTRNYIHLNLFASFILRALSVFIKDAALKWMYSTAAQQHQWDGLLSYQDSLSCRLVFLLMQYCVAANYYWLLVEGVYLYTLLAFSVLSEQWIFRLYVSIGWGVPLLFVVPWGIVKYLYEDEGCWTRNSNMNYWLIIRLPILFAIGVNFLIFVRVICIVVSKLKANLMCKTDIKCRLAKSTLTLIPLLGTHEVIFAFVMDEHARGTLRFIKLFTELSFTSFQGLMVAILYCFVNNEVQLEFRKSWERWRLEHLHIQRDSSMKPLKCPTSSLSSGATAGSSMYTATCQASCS

Compound	Potency	activity change, negative = inhibition
Cc1cc(NCc2ccccn2)n2nc(C)c(-c3ccccc3)c2n1	inconclusive: 3.55 µM [inhibitor, full curve, poor fit]	–
COc1cccc(CN2C(=O)C3(SCC(=O)N3c3ccc(C(C)C)cc3)c3ccccc32)c1 (centres undefined)	inconclusive: 28.2 µM [inhibitor, single point]	–
NC(=O)CSc1nnnn1-c1cccc(O)c1	–	inactive: 11%
CCc1cccc(NC(=O)c2oc3ccc4c(c3c2C)C(=O)CC(C)(C)O4)c1	inconclusive: 11.2 µM [inhibitor, partial curve, poor fit]	–
CCO[C@H]1OC(C(=O)Nc2ccccc2)=C[C@@H](C2CC2)[C@@H]1CCCO	inconclusive: 20 µM [inhibitor, single point]	–
COc1ccc(CN2CCC3CC2c2cc(Cl)ccc23)cc1 (centres undefined)	inconclusive: 14.1 µM [inhibitor, single point]	–
Cc1csc2c(N3CCN(C(=O)Nc4ccc(OC(F)(F)F)cc4)CC3)ncnc12	inconclusive: 12.6 µM [inhibitor, partial curve, poor fit]	–
Cn1c(SCc2ccccc2Cl)nc2c([nH]c3ccccc32)c1=O	–	inactive: 8.41%
Cc1nc2c(OCc3cccc(Cl)c3)cccn2c1N(C)CC1CC1	inconclusive: 28.2 µM [inhibitor, single point]	–
O=C(COc1ccc(Cl)cc1)NNC(=S)NCc1ccccc1	–	inactive: -27.5%
CCCCN1CC[C@H]2C=CC[C@@H](C(=O)Nc3ccc(Cl)cc3Cl)[C@H]2C1=O	inconclusive: 28.2 µM [inhibitor, single point]	–
CC1CCN(C(=O)C2CCN(c3ncnc4c3nc3n4CCCCC3)CC2)CC1	inconclusive: 4.47 µM [inhibitor, full curve, poor fit]	–
CC1CCCC(NC(=O)CSc2ncccc2C(=O)O)C1C (centres undefined)	inconclusive: 22.4 µM [inhibitor, single point]	–
Cc1ccnc(NC2(C(F)(F)F)N=C3SCCN3C2=O)c1 (centres undefined)	–	inactive: 22.1%
Cc1ccc(S(=O)(=O)N2[C@H](CC(=O)c3ccc(F)cc3)OC[C@@H]2C(C)C)cc1	inconclusive: 28.2 µM [inhibitor, single point]	–
COc1ccccc1NS(=O)(=O)c1cccc(NC(=O)Cc2cccs2)c1	inconclusive: 1.41 µM [inhibitor, partial curve, poor fit]	–
O=C(Nc1cccc(F)c1)NC1CCN(Cc2ccccc2)CC1	inconclusive: 8.91 µM [inhibitor, partial curve, poor fit]	–
COc1ccc2c(c1)C(CC(C)=O)N(c1ccc(-c3cccnc3)cc1)C(c1ccsc1)=C2 (centres undefined)	–	inactive: -21.4%
Cc1ccc(C(=O)/C=C/NCc2ccc(F)cc2)cc1	inconclusive: 11.2 µM [inhibitor, single point]	–
O=C(NCC1(c2ccccc2)CCCC1)c1ccc(Br)cc1	inconclusive: 28.2 µM [inhibitor, single point]	–
COc1ccc(Cn2nnnc2C(c2ccc(F)cc2)N2CCN(C3CCCC3)CC2)cc1 (centres undefined)	inconclusive: 11.2 µM [inhibitor, partial curve, poor fit]	–
O=C(c1ccco1)N1CCN(CC(O)COc2ccc3oc4ccccc4c3c2)CC1 (centres undefined)	–	inactive: 0.666%

Compound	Potency	activity change, negative = inhibition
O=C(CSC(=S)N1CCCCC1)c1ccccc1	inconclusive: 6.31 µM [inhibitor, partial curve, poor fit]	–
CCn1c2ccccc2c2cc(NC(=O)CSc3nnc(-c4cccc(C)c4)o3)ccc21	inconclusive: 7.94 µM [inhibitor, partial curve, poor fit]	–
Cc1ccccc1C(=O)c1cccn1CC(=O)NCCC1=CCCCC1	inconclusive: 31.6 µM [inhibitor, single point]	–
Cc1ccc(S(=O)(=O)N2CCCN(C(=O)c3ccc(-n4nccc4C)cc3)CC2)cc1	inconclusive: 28.2 µM [inhibitor, single point]	–
OC(CN1CCN(c2ccccc2)CC1)c1c[nH]c2ccccc12 (centres undefined)	inconclusive: 10 µM [inhibitor, partial curve, poor fit]	–
Cc1nn(-c2ccccc2)c2c1N(CCCC(=O)NCc1ccccc1)C(=O)CS2	inconclusive: 11.2 µM [inhibitor, partial curve, poor fit]	–
CN(CC(=O)Nc1cccc(F)c1)C(=O)c1ccc(-c2cccc(C(F)(F)F)c2)o1	inconclusive: 28.2 µM [inhibitor, single point]	–
CCCc1ccc(S(=O)(=O)N2CCN(C(C)C(=O)NCc3ccccc3)CC2)cc1 (centres undefined)	inconclusive: 12.6 µM [inhibitor, single point]	–
CN1CCN(C(=O)CCCN2C(=O)/C(=C/c3cccc(Br)c3)SC2=S)CC1	active: 10 µM	–
CCOc1ccccc1N1CC(O)=C(c2nc3ccccc3s2)C1=N	inconclusive: 3.55 µM [inhibitor, full curve]	–
COc1ccc(NC(=O)C(C)Sc2cc(-c3ccccc3)nc(C)n2)cc1Cl (centres undefined)	inconclusive: 28.2 µM [inhibitor, single point]	–
CC(Nc1nc(N2CCN(CCO)CC2)nc2ccccc12)c1ccccc1 (centres undefined)	active: 4.47 µM	–
CN1CCN(C(c2cccnc2)c2ccc3cccnc3c2O)CC1 (centres undefined)	–	inactive: 1.99%
O=C(CNC1CCCC1)Nc1ccc(N2CCCCCC2)cc1	inconclusive: 15.8 µM [inhibitor, single point]	–
O=Nc1c(O)n(Cc2ccc(Cl)cc2)c2ccccc12	inconclusive: 28.2 µM [inhibitor, single point]	–
CCCCC(=O)Nc1ccccc1Oc1ccccc1	inconclusive: 10 µM [inhibitor, partial curve, poor fit]	–
O=C(c1cc(-c2ccc(Br)cc2)on1)N1CCOCC1	inconclusive: 8.91 µM [inhibitor, partial curve, poor fit]	–
COc1ccc(C)cc1NC(=O)COC(=O)c1c(-c2ccccc2)noc1C	inconclusive: 10 µM [inhibitor, partial curve, poor fit]	–
Cc1ccc(C)c(NC(=S)NCc2ccccc2)c1	inconclusive: 11.2 µM [inhibitor, partial curve, poor fit]	–
O=C(Cc1ccccc1)Nc1nnc(-c2cccs2)s1	–	inactive: 36.3%
Cc1cc(OCc2cc(C(=O)N3CCC(Oc4cccnc4)CC3)no2)cc(C)c1Cl	inconclusive: 3.16 µM [inhibitor, partial curve, poor fit]	–
CCCCc1nc2ccccc2c(NC(=O)CN(CC)CC)c1CCC	inconclusive: 10 µM [inhibitor, partial curve, poor fit]	–

Compound	Potency	activity change, negative = inhibition
Cc1ccc(S(=O)(=O)NCCC(=O)NNC(=O)c2ccccc2O)cc1C	–	inactive: -25.8%
CC(C)C[C@@H]1O[C@H](CCc2ccccc2)CC2=C1C(=O)OC(C)(C)O2	inconclusive: 28.2 µM [inhibitor, single point] and inconclusive: 14.1 µM [inhibitor, single point]	–
COc1cccc(N2CCN(C(=O)c3ccc4nc(N5CCCCC5)sc4c3)CC2)c1	inconclusive: 10 µM [inhibitor, partial curve, poor fit]	–
O=C(NC1CCCCCCC1)c1ccc(Br)o1	inconclusive: 25.1 µM [inhibitor, single point]	–
Cc1cccc(C)c1OCc1nc2ccccc2[nH]1	inconclusive: 10 µM [inhibitor, single point]	–
CCOC(=O)C1=CCN(S(=O)(=O)c2ccccc2C)C1c1cccc(C)c1 (centres undefined)	inconclusive: 28.2 µM [inhibitor, single point]	–
Cc1ccc(NC(=O)CCN2C(=O)c3ccccc3C2=O)cc1	–	inactive: 12.5%
Cc1ccc(NC(=O)COc2ccc(C(=O)c3ccccc3)cc2)c(O)c1	inconclusive: 28.2 µM [inhibitor, single point]	–
COc1ccc(N2CCN(C(=O)c3cc4c(s3)CCCCC4)CC2)cc1	inconclusive: 28.2 µM [inhibitor, single point]	–
O=C1c2ccccc2-c2onc3ccc(NCc4ccco4)c1c23	inconclusive: 28.2 µM [inhibitor, single point]	–
Cc1ccc(OCC(=O)Nc2ccc3[nH]c(=O)sc3c2)cc1	–	inactive: 23.6%
CC(C)(C)n1nnnc1C(c1cccnc1)N1CCN(c2cccc(C(F)(F)F)c2)CC1 (centres undefined)	inconclusive: 10 µM [inhibitor, single point]	–
Cc1ccccc1-c1cccc([C@@H]2C[C@H]3[C@H](CON3C)CN2S(=O)(=O)c2ccccc2C)c1	inconclusive: 28.2 µM [inhibitor, single point]	–
O=C(/C=C/c1ccc(Br)cc1)c1ccc(NC2=NCCCS2)cc1	active: 5.01 µM	–
COc1ccc(C2C3=C(CC(C)(C)CC3=O)Nc3c2c(=O)[nH]c(=O)n3Cc2ccccc2)cc1 (centres undefined)	inconclusive: 3.16 µM [inhibitor, full curve]	–
Fc1ccccc1C1c2[nH]c3ccccc3c2CCN1Cc1ccoc1 (centres undefined)	active: 8.91 µM	–
COc1ccccc1-c1noc(-c2ccc(NCc3cccnc3)c([N+](=O)[O-])c2)n1	–	inactive: 16.9%
COc1ccccc1CNc1ncc(-c2ccccc2)n1C	inconclusive: 31.6 µM [inhibitor, single point]	–
C[C@H]1CN([C@@H](C)CO)S(=O)(=O)c2ccc(Br)cc2O[C@H]1CN(C)C(=O)NC1CCCCC1	inconclusive: 11.2 µM [inhibitor, single point]	–
CCN1CCN(C(c2ccccn2)c2c(NC(=O)c3ccccc3)sc(C)c2C)CC1 (centres undefined)	inconclusive: 11.2 µM [inhibitor, partial curve, poor fit]	–
